Source: patent US20210269548A1 (Kyowa Kirin, published 2021)

T1: monkey CSPG5 (monkey (rhesus monkey), UniProt O95196 31-566 (human entry))
T1 construct: Full-length gene expressed on Expi293F cells; also called monkey CSPG5/Expi293F cells; rhesus monkey CSPG5
T1 chain: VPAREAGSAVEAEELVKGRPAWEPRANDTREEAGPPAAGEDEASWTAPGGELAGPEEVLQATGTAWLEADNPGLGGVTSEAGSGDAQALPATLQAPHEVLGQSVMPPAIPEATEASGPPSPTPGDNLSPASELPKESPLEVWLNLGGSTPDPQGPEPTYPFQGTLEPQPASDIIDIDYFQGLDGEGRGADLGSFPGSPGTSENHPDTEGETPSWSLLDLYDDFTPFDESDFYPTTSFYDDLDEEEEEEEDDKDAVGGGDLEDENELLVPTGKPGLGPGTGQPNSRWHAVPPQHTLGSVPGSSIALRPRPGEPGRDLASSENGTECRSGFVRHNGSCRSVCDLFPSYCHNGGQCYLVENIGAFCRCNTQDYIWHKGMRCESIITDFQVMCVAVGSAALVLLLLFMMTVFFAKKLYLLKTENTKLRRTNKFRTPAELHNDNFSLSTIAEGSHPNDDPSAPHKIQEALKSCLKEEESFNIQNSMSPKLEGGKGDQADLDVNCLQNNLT

T2: human CSPG5 (human, UniProt O95196 31-566)
T2 construct: Full-length gene expressed on cell membrane (Expi293F, L929); also called human CSPG5/Expi293F cells; human CSPG5/L929#09
T2 sequence: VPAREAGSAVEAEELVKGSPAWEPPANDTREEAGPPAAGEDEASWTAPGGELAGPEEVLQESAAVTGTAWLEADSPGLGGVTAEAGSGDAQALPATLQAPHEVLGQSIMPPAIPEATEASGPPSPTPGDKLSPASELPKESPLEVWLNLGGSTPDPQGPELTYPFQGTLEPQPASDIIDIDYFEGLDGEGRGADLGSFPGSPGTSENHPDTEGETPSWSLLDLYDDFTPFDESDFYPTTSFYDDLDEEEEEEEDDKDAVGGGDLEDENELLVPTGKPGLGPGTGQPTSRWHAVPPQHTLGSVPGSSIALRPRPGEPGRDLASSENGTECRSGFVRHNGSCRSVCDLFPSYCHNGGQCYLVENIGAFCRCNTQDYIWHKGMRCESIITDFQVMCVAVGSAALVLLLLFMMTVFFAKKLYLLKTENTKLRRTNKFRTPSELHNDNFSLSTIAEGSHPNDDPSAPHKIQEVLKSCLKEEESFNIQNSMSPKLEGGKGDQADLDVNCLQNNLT

T3: mouse CSPG5 (mouse, UniProt Q71M36 31-566)
T3 construct: Full-length gene expressed on Expi293F cells; also called mouse CSPG5/Expi293F cells
T3 sequence: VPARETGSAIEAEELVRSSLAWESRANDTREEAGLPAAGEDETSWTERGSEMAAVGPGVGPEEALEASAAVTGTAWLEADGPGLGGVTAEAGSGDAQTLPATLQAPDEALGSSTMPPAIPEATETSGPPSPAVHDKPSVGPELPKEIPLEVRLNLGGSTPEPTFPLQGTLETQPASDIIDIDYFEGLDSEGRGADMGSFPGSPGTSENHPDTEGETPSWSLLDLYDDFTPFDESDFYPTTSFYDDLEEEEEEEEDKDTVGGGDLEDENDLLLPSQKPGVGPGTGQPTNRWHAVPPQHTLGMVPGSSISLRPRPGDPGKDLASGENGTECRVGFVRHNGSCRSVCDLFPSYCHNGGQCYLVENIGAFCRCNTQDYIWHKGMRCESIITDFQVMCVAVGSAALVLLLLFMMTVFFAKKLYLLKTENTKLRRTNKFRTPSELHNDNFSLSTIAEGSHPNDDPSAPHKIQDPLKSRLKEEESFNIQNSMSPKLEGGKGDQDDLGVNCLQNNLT


Columns and labels:
monkey CSPG5 = molecular target: T1, monkey CSPG5; assay: FACS, 10 µg/mL antibody, monkey CSPG5/Expi293F vs Expi293F
Experimental: (§1) Expi293F cells, human CSPG5/Expi293F cells, mouse CSPG5/Expi293F cells, and monkey CSPG5/Expi293F cells were separately suspended in Staining Buffer (SB) of PBS comprising 0.1% NaN₃ and 1% FBS and dispensed in a round-bottom 96-well plate (manufactured by Becton, Dickinson and Company). After centrifugation (2000 rpm, 4° C., 2 minutes), the supernatant was removed, and to the resulting pellet, 10 μg/mL of each antibody obtained in Example 2 was added to suspend the pellet, and the resulting suspension was left to stand for 30 minutes at ice temperature. After further centrifugation (2000 rpm, 4° C., 2 minutes), the supernatant was removed, and the resulting pellet was washed with SB, and thereafter, 1 μg/mL of an RPE fluorescently labeled goat anti-human antibody (manufactured by Southern Biotech, Inc.) was added thereto, and the resultant was incubated for 30 minutes at ice temperature. After washing with SB, the cells were suspended in SB, and the fluorescence intensity of each cell was measured using a flow cytometer FACS CANTO II (manufactured by Becton, Dickinson and Company). Note that as a negative control, 10 μg/mL of the anti-AVM antibody was used.
(§2) The detection results were analyzed, and a mean fluorescence intensity (MFI) was calculated using a geometric mean. Further, with respect to the MFI when the concentration of each antibody was 10 μg/mL, the ratio of the MFI (mean fluorescence intensity ratio) between the human CSPG5/Expi293F cells and the Expi293F cells (parent cell line) was calculated. Also for the monkey CSPG5/Expi293F cells and the mouse CSPG5/Expi293F cells, the mean fluorescence intensity ratio relative to the Expi293F cells (parent cell line) was calculated by the same procedure, and the results are shown in Table 3.

human CSPG5 = molecular target: T2, human CSPG5; assay: FACS, 10 µg/mL antibody, human CSPG5/Expi293F vs Expi293F
Experimental: as §1, §2

mouse CSPG5-GST = mouse CSPG5-GST (mouse); assay: SPR Biacore T-100, antibody captured, mouse CSPG5-GST analyte
Experimental: The affinity of the anti-CSPG5 antibodies, the CSPG5202 IgG4PE(R409K), and the AVM IgG4PE(R409K) CSPG5202 dscFv produced in Example 2 for human CSPG5 and mouse CSPG5 was measured using Biacore T-100 (GE Healthcare).
Each of the antibodies was immobilized on a […] sensor chip using a Human antibody Capture kit, and the binding ability was evaluated using human CSPG5-GST and mouse CSPG5-GST produced in Example 4 as analytes. The obtained sensorgram was analyzed with BIA evaluation software, and the dissociation constant (KD value) was calculated.

mouse CSPG5 = molecular target: T3, mouse CSPG5; assay: FACS, 10 µg/mL antibody, mouse CSPG5/Expi293F vs Expi293F
Experimental: as §1, §2

| Binder | Mean fluorescence intensity ratio (monkey CSPG5) | Mean fluorescence intensity ratio (human CSPG5) | Kd (mouse CSPG5-GST) [nM] | Mean fluorescence intensity ratio (mouse CSPG5) |
| --- | --- | --- | --- | --- |
| CSPG5227 scFv-hG4PE(R409K) (Fc fusion, also called anti-CSPG5 scFv-Fc antibody) VH: [omitted - about 100 residues]LKRTQGFDYWGQGTLVTVSS VL: DIVMTQSPDSLAVSLGERATINCKSSQSVLYSSNNKNYLAWYQQKPGQPPKLLIYWASTRESGVPDRFSGSGSGTDFTLTISSLQAEDVAVYYCQQSNRLPPTFGQGTKVEIK | 4.09 ratio to parent cell line | 5.29 ratio to parent cell line | ≤ 10 | 10 ratio to parent cell line |
| CSPG5202 scFv-hG4PE(R409K) (Fc fusion, also called anti-CSPG5 scFv-Fc antibody) VH: [omitted - about 100 residues]ISKTQGFDYWGQGTLVTVSS VL: DIVMTQSPDSLAVSLGERATINCKSSQSVLYSSNNKNYLAWYQQKPGQPPKLLIYWASTRESGVPDRFSGSGSGTDFTLTISSLQAEDVAVYYCQQSRTRRPTFGQGTKVEIK | 3.69 ratio to parent cell line | 6.16 ratio to parent cell line | ≤ 10 | 5.39 ratio to parent cell line |
| CSPG5205 scFv-hG4PE(R409K) (Fc fusion, also called anti-CSPG5 scFv-Fc antibody) VH: [omitted - about 100 residues]TKPNNAFDYWGQGTLVTVSS VL: DIVMTQSPDSLAVSLGERATINCKSSQSVLYSSNNKNYLAWYQQKPGQPPKLLIYWASTRESGVPDRFSGSGSGTDFTLTISSLQAEDVAVYYCQQTATQPLTFGQGTKVEIK | 9.58 ratio to parent cell line | 28.5 ratio to parent cell line | ≤ 10 | 30.1 ratio to parent cell line |
| CSPG5208 scFv-hG4PE(R409K) (Fc fusion, also called anti-CSPG5 scFv-Fc antibody) VH: [omitted - about 100 residues]YTREGSFDYWGQGTLVTVSS VL: DIVMTQSPDSLAVSLGERATINCKSSQSVLYSSNNKNYLAWYQQKPGQPPKLLIYWASTRESGVPDRFSGSGSGTDFTLTISSLQAEDVAVYYCQQALERAPTFGQGTKVEIK | 6.96 ratio to parent cell line | 16.9 ratio to parent cell line | ≤ 10 | 16.6 ratio to parent cell line |
| CSPG5222 scFv-hG4PE(R409K) (Fc fusion, also called anti-CSPG5 scFv-Fc antibody) VH: [omitted - about 100 residues]IKQTGAFDYWGQGTLVTVSS VL: DIVMTQSPDSLAVSLGERATINCKSSQSVLYSSNNKNYLAWYQQKPGQPPKLLIYWASTRESGVPDRFSGSGSGTDFTLTISSLQAEDVAVYYCQQLVQGPPTFGQGTKVEIK | 2.82 ratio to parent cell line | 2.52 ratio to parent cell line | ≤ 10 | 2.94 ratio to parent cell line |
| CSPG5202 IgG4PE(R409K) (antibody, V domains shown, variable regions of CSPG5202 on CL and CH of the human IgG4 variant (S228P, L235E, R409K); also called anti-CSPG5-IgG4 antibody; anti-CSPG5202-IgG4 antibody) VH: [omitted - about 100 residues]ISKTQGFDYWGQGTLVTVSS VL: DIVMTQSPDSLAVSLGERATINCKSSQSVLYSSNNKNYLAWYQQKPGQPPKLLIYWASTRESGVPDRFSGSGSGTDFTLTISSLQAEDVAVYYCQQSRTRRPTFGQGTKVEIKR |  |  | ≤ 10 |  |
